The other results are listed elsewhere or left out. Some results are limits rather than exact numbers.

To fix the notation:
B1: PhoQ; a variant is named by its letters at X, in order, P23837 (parent)
chain: MKKLLRLFFPLSLRVRFLLATAAVVLVLSLAYGMVALIGYSVSFDKTTFRLLRGESNLFYTLAKWENNKLHVELPENIDKQSPTMTLIYDENGQLLWAQRDVPWLMKMIQPDWLKSNGFHEIEADVNDTSLLLSGDHSIQQQLQEVREDDDDAEMTHSVAVNVYPATSRMPKLTIVVVDTIPVELKSSYMVWSWFIYVLSANLLLVIPLLWVAAWWSLRPIEALAKEVRELEEHNRELLNPATTRELTSLVRNLNRLLKSERERYDKYRTTLTDLTHSLKTPLXXLQXXLRSLRSEKMSVSDAEPVMLEQISRISQQIGYYLHRASMRGGTLLSRELHPVAPLLDNLTSALNKVYQRKGVNISLDISPEISFVGEQNDFVEVMGNVLDNACKYCLEFVEISARQTDEHLYIVVEDDGPGIPLSKREVIFDRGQRVDTLRPGQGVGLAVAREITEQYEGKIVAGESMLGGARMEVIFGRQHSAPKDE

The test covers variants of B1. Description: enrichment ratio after two sorts for PhoP signalling (ratio (wild type AVST 3.29)); higher = more functional. Particulars: with PhoP (E. coli).
As to HIEP, the enrichment ratio was at most 0.25. For the variant NCCR, the enrichment ratio was at most 0.25.

Take ASMY: the enrichment ratio stood at 8.56. In the case of PRIL, the enrichment ratio is at most 0.25.

In the case of SMHA, the enrichment ratio was at most 0.25. The result for QLRG reads at most 0.25. In the case of ILRE it was at most 0.25. For the variant YSDQ, the enrichment ratio is at most 0.25. Turning to RAHL, the enrichment ratio is at most 0.25.

As for IKIP, the enrichment ratio was at most 0.25. The result for FYMH reads at most 0.25. For YYCS, the enrichment ratio is at most 0.25. Turning to EPND, the enrichment ratio was at most 0.25. In the case of QWAT it was at most 0.25; in that of MWIH, at most 0.25. In the case of PFQI it was at most 0.25; in that of NWDI, at most 0.25; in that of FAEA, at most 0.25.

With LSNT, the enrichment ratio was at most 0.25. Take MLHG: the enrichment ratio was at most 0.25. The result for LSVF reads at most 0.25; that for LRGQ, at most 0.25.

Take MRGC: the enrichment ratio was at most 0.25. In the case of YAAH it was at most 0.25; in that of YFWS, at most 0.25; in that of FQPR, at most 0.25. The result for VVQM reads at most 0.25; that for LILG, at most 0.25; that for WREN, at most 0.25. As for LKPT, the enrichment ratio was at most 0.25. The result for PRQN reads at most 0.25; that for DTRL, at most 0.25; that for VCIP, at most 0.25.

As for MGQS, the enrichment ratio is at most 0.25. Regarding IMKE, the enrichment ratio is at most 0.25. Consider IGGP, for which the enrichment ratio is at most 0.25. The result for SMHV reads at most 0.25; that for FNAR, at most 0.25. Consider NGNM, for which the enrichment ratio was at most 0.25. In the case of PRYE it was at most 0.25; in that of AVGS, 0.537. Consider QIYQ, for which the enrichment ratio was determined as 3.24.

With KYYE, the enrichment ratio was at most 0.25.

Consider LEDM, for which the enrichment ratio was at most 0.25.

As for RRLD, the enrichment ratio was at most 0.25. Take VEFV: the enrichment ratio is 2.44.

For SHKT, the enrichment ratio is at most 0.25. The result for VWFW reads at most 0.25. In the case of LFTV it was at most 0.25. Regarding MEQG, the enrichment ratio was at most 0.25.

For YDWQ, the enrichment ratio is at most 0.25. In the case of EMLN it was at most 0.25. In the case of HNEQ, the enrichment ratio was at most 0.25. The result for LCRG reads at most 0.25; that for EQPY, at most 0.25.

With DDSI, the enrichment ratio is at most 0.25. The result for MKNC reads at most 0.25; that for TAKV, at most 0.25. In the case of HLDF it was at most 0.25. As for STFM, the enrichment ratio was at most 0.25. The result for VQVT reads at most 0.25. The result for PQMH reads at most 0.25. In the case of RSNT it was at most 0.25. On to PKSG, for which the enrichment ratio is at most 0.25. Take AFSA: the enrichment ratio was at most 0.25. In the case of DSKT it was at most 0.25; in that of VRWS, at most 0.25. The result for PTPD reads at most 0.25.

Turning to TSLY, the enrichment ratio stood at 6.84.

Take VRTM: the enrichment ratio was at most 0.25. Turning to CFCM, the enrichment ratio was at most 0.25. The result for VWYL reads at most 0.25; that for RMWP, at most 0.25; that for IEGA, at most 0.25. HCIW: the enrichment ratio is at most 0.25. NNKD: the enrichment ratio was at most 0.25. Take EEGV: the enrichment ratio was at most 0.25. The result for PSIF reads at most 0.25. The result for AHAN reads at most 0.25; that for QPYN, at most 0.25; that for GFAL, at most 0.25. Take VWND: the enrichment ratio is at most 0.25.

Take YRPH: the enrichment ratio was at most 0.25. The result for YKRI reads at most 0.25; that for MIFW, at most 0.25; that for YHCM, at most 0.25.

KNMV: the enrichment ratio is at most 0.25. In the case of AHTQ, the enrichment ratio is at most 0.25. For LLMW, the enrichment ratio was at most 0.25. As for ETQW, the enrichment ratio is at most 0.25. Take RIHF: the enrichment ratio is at most 0.25. The result for FLHI reads at most 0.25.

In the case of YDSI, the enrichment ratio was at most 0.25.

Turning to IIAW, the enrichment ratio was at most 0.25. The result for FCIR reads at most 0.25.

Consider DHTN, for which the enrichment ratio is at most 0.25. In the case of LKAK it was at most 0.25; in that of WRCL, at most 0.25; in that of IWEI, at most 0.25. In the case of PVYH it was at most 0.25; in that of MRKP, at most 0.25.

Turning to RYMK, the enrichment ratio is at most 0.25. WRLC: the enrichment ratio is at most 0.25. In the case of TAVW it was at most 0.25.

Consider KKFW, for which the enrichment ratio is at most 0.25. In the case of ISMP it was at most 0.25; in that of QIEI, at most 0.25. In the case of VDVG it was at most 0.25. The result for NMAI reads at most 0.25; that for HSKK, at most 0.25; that for FDNN, at most 0.25. Consider FPLY, for which the enrichment ratio was at most 0.25. Consider RAPD, for which the enrichment ratio was at most 0.25. The result for WNQP reads at most 0.25; that for MSHM, 22. Regarding FFTL, the enrichment ratio is at most 0.25. As for DCDM, the enrichment ratio was at most 0.25. The result for SIDA reads at most 0.25. Consider RKQG, for which the enrichment ratio is at most 0.25. In the case of TFHD it was at most 0.25. In the case of TTWA it was at most 0.25; in that of LERS, at most 0.25; in that of LPDE, at most 0.25.

With FNAL, the enrichment ratio is at most 0.25. In the case of EITV it was at most 0.25. For the variant SVSQ, the enrichment ratio is 13.4. Regarding MDSW, the enrichment ratio is at most 0.25. The result for YACE reads at most 0.25; that for PAHP, at most 0.25.

As to LVNG, the enrichment ratio is at most 0.25. Turning to YDNL, the enrichment ratio is at most 0.25. In the case of KKFG, the enrichment ratio was at most 0.25.

KMNE: the enrichment ratio was at most 0.25. The result for PHTA reads at most 0.25; that for VTWA, at most 0.25.

For the variant LQWM, the enrichment ratio was at most 0.25.

On to SVKL, for which the enrichment ratio is at most 0.25. The result for VYVQ reads at most 0.25; that for WMYT, at most 0.25; that for RHQQ, at most 0.25. Regarding APRG, the enrichment ratio was at most 0.25. The result for RMNI reads at most 0.25; that for KKSY, at most 0.25; that for FVAS, at most 0.25. With IIIS, the enrichment ratio is at most 0.25. As to DEYL, the enrichment ratio is at most 0.25.

DLTW: the enrichment ratio is at most 0.25. The result for KRHS reads at most 0.25; that for KCVC, at most 0.25. As to HNAF, the enrichment ratio was at most 0.25. The result for KRYK reads at most 0.25. For the variant DLKW, the enrichment ratio was at most 0.25. For the variant PHPI, the enrichment ratio was at most 0.25.
